# Test results taken from the antibiotic and cytotoxicity screens of Wong et al. (2023).
# This is one part of the list.
# How the values were obtained:
# HSkMC = human skeletal muscle cells; test: cytotoxicity call (relative viability < 0.9); conditions: 10 µM
# HepG2 = test: cytotoxicity call (relative viability < 0.9); conditions: 10 µM
# S. aureus RN4220 = test: growth inhibition call (relative growth <= 0.2); conditions: 50 µM
SMILES,cytotoxicity call (HSkMC),cytotoxicity call (HepG2),growth inhibition call (S. aureus RN4220)
C[C@@H]1CCCCO[C@@H](CN(C)C(=O)Cc2ccccc2)[C@@H](C)CN([C@H](C)CO)C(=O)c2cc(NC(=O)CCCCCC(=O)Nc3ccccc3N)ccc2O1,inactive,inactive,inactive
CCC(=O)N[C@@H]1C=C[C@H](CC(=O)OC)O[C@@H]1CO,inactive,inactive,inactive
O=C(C[C@@H]1CC[C@@H]2[C@H](COC[C@H](O)CN2C(=O)c2ccccc2)O1)N1CCOCC1,inactive,inactive,inactive
COc1ccc(Cc2nn[nH]n2)cc1,inactive,inactive,inactive
C[C@@H]1CN([C@@H](C)CO)C(=O)c2cc(Br)cnc2O[C@@H]1CN(C)S(=O)(=O)c1ccccc1,inactive,inactive,inactive
COc1ccc(S(=O)(=O)Nc2ccc3c(c2)C(=O)N([C@@H](C)CO)C[C@@H](C)[C@@H](CN(C)Cc2ccc(-c4ccccc4)cc2)O3)cc1,active,active,inactive
Cc1ccc(S(=O)(=O)N(C)C[C@@H]2OCCCC[C@H](C)Oc3ccc(NC(=O)Nc4ccc(C(F)(F)F)cc4)cc3C(=O)N([C@@H](C)CO)C[C@H]2C)cc1,inactive,inactive,inactive
COc1cccc(CNC(=O)c2cc3c(c(-c4cccc(-c5cccc(C#N)c5)c4)n2)[C@H](CCO)N([S@@](=O)C(C)(C)C)C3)c1,inactive,inactive,inactive
Cc1ccc(S(=O)(=O)Nc2ccc3c(c2)C(=O)N([C@@H](C)CO)C[C@H](C)[C@H](CN(C)S(=O)(=O)c2cccs2)O3)cc1,inactive,inactive,inactive
